Read-outs that look alike come from different tables or passages of the source.
Columns and labels:
wheat Fusarium blight = tested on: wheat Fusarium blight
Description: 20 g of moistened seeds (seeds inoculated with wheat Fusarium blight) of test plants (Nourin 61 gou) were coated with wettable powder containing the compound of the present invention so as the application rate to be 0.1% a.i. The seeds (30 grains) treated by the above method were sown, and the disease severity was observed after 2 weeks. Tests were carried out in duplicate.
(§1) Here, the disease severity of the test plants was observed by the naked eyes and evaluated in accordance with the following criteria, and expressed (in 4 levels of 0 to 3 in which the disease severity of the untreated plants was 3).

cucumber Fusarium wilt [1] = tested on: cucumber Fusarium wilt
Description: (§2) Seed Treatment Test (Cucumber Fusarium Wilt)
10 g of moistened seeds (seeds inoculated with cucumber Fusarium wilt) of test plants (Sagamihanpaku) were coated with wettable powders containing the compound of the present invention so as the application rate to be 0.1% a.i. The seeds (10 grains) treated by the above method were sown and the disease severity was observed after 3 weeks. Tests were carried out in duplicate.
as §1

cucumber Fusarium wilt [2] = tested on: cucumber Fusarium wilt; remark: listed apart in the source
Description: Soil Disease Prevention Test (Cucumber Fusarium Wilt)
Seeds of pot-cultivated test plants (Sagamihanpaku) were sown to an inoculated soil which was adjusted so that cucumber Fusarium wilt spores were 1×10^5 per 1 g of soil. At the time of sowing, the solution of wettable powders containing the compound of the present invention dissolved in water was drenched into the soil at the rate of 10,000 g/ha. The disease severity was observed 3 weeks after treatment. Tests were carried out in duplicate.
Here, the disease severity of the test plants was observed by the naked eyes, judged in accordance with the following criteria, and expressed (in 4 levels of 0 to 3 in which the disease severity of the untreated plants was 3).

cucumber Fusarium wilt [3] = tested on: cucumber Fusarium wilt; remark: listed apart in the source
Description: as §2
10 g of moistened seeds of test plants (cultivar of cucumber: Sagamihanpaku) were coated with wettable powders containing the compound of the present invention so as the application rate to be 0.1% a.i. The seeds (10 grains) treated by the above method were sown in the soil inoculated with cucumber Fusarium wilt (1×10^5 spores), and the disease severity was observed after 3 weeks. Tests were carried out in duplicate.
as §1

[4] = wheat (Nourin 61 gou) seeds inoculated with wheat Fusarium blight, seed coating 0.1% a.i., observed after 2 weeks, untreated = 3
[5] = cucumber (Sagamihanpaku) seeds inoculated with cucumber Fusarium wilt, seed coating 0.1% a.i., observed after 3 weeks, untreated = 3
[6] = cucumber (Sagamihanpaku), inoculated soil 1×10^5 spores per 1 g, soil drench at sowing 10,000 g/ha, observed 3 weeks after treatment, untreated = 3
[7] = cucumber (Sagamihanpaku) seeds coated 0.1% a.i., sown in soil inoculated with cucumber Fusarium wilt (1×10^5 spores), observed after 3 weeks, untreated = 3

Measured: disease severity

CC1(C)N=C(c2cnc3ccccc3c2)c2cccc(F)c2C1(C)C [Compound No. 1-866, 3-(5-fluoro-3,3,4,4-tetramethyl-3,4-dihydroisoquinolin-1-yl)quinoline]
0: wheat Fusarium blight; in vivo | cucumber Fusarium wilt [1]; in vivo | cucumber Fusarium wilt [2]; in vivo | cucumber Fusarium wilt [3]; in vivo

CC1(C)N=C(c2cnc3c(F)cccc3c2)c2cccc(F)c2C1(C)C [Compound No. 1-918, 8-fluoro-3-(5-fluoro-3,3,4,4-tetramethyl-3,4-dihydroisoquinolin-1-yl)quinoline]
0: wheat Fusarium blight; in vivo | cucumber Fusarium wilt [1]; in vivo | cucumber Fusarium wilt [2]; in vivo | cucumber Fusarium wilt [3]; in vivo

Cc1cccc2cc(C3=NC(C)(C)C(C)(C)c4c(F)cccc43)cnc12 [Compound No. 1-919, 3-(5-fluoro-3,3,4,4-tetramethyl-3,4-dihydroisoquinolin-1-yl)-8-methylquinoline]
0: wheat Fusarium blight; in vivo | cucumber Fusarium wilt [1]; in vivo | cucumber Fusarium wilt [2]; in vivo | cucumber Fusarium wilt [3]; in vivo

CC1(C)N=C(c2cnc3ccccc3c2)c2ccccc2C1(F)F [Compound No. 1-929, 3-(4,4-difluoro-3,3-dimethyl-3,4-dihydroisoquinolin-1-yl)quinoline]
0: wheat Fusarium blight; in vivo | cucumber Fusarium wilt [1]; in vivo | cucumber Fusarium wilt [2]; in vivo | cucumber Fusarium wilt [3]; in vivo

CC1(C)N=C(c2cnc3ccccc3c2)c2cccc(F)c2C1(F)F [Compound No. 1-930, 3-(4,4,5-trifluoro-3,3-dimethyl-3,4-dihydroisoquinolin-1-yl)quinoline]
0: wheat Fusarium blight; in vivo | cucumber Fusarium wilt [1]; in vivo | cucumber Fusarium wilt [2]; in vivo | cucumber Fusarium wilt [3]; in vivo

CC1(C)c2c(F)cccc2C2(c3cnc4ccccc4c3)ON2C1(C)C (stereo not drawn) [Compound No. 2-100, 5-fluoro-3,3,4,4-tetramethyl-8b-quinolin-3-yl-4,8b-dihydro-3H-oxazireno[3,2-a]isoquinoline]
0: wheat Fusarium blight; [4] | cucumber Fusarium wilt [1]; [5] | cucumber Fusarium wilt [2]; [6] | cucumber Fusarium wilt [3]; [7]

CC1(C)N2OC2(c2cnc3ccccc3c2)c2cccc(F)c2C1(F)F (stereo not drawn) [Compound No. 2-135, 4,4,5-trifluoro-3,3-dimethyl-8b-quinolin-3-yl-4,8b-dihydro-3H-oxazireno[3,2-a]isoquinoline]
0: wheat Fusarium blight; [4] | cucumber Fusarium wilt [1]; [5] | cucumber Fusarium wilt [2]; [6] | cucumber Fusarium wilt [3]; [7]

CC1(C)c2c(F)cccc2C(c2cnc3ccccc3c2)=[N+]([O-])C1(C)C [Compound No. 3-100, 3-(5-fluoro-3,3,4,4-tetramethyl-2-oxido-3,4-dihydroisoquinolin-1-yl)quinoline]
0: wheat Fusarium blight; in vivo | cucumber Fusarium wilt [1]; in vivo | cucumber Fusarium wilt [2]; in vivo | cucumber Fusarium wilt [3]; in vivo

CC1(C)[N+]([O-])=C(c2cnc3ccccc3c2)c2cccc(F)c2C1(F)F [Compound No. 3-135, 3-(4,4,5-trifluoro-3,3-dimethyl-2-oxido-3,4-dihydroisoquinolin-1-yl)quinoline]
0: wheat Fusarium blight; in vivo | cucumber Fusarium wilt [1]; in vivo | cucumber Fusarium wilt [2]; in vivo | cucumber Fusarium wilt [3]; in vivo
